± gives the standard deviation of the averaged measurements. This is one part of the list.

For this test, the system named is PfAP2-G AP2 domain (GST-tagged). Kind of test: gcPBM binding intensity (ln(normalized median fluorescence intensity)); higher = stronger DNA binding. The gist of the method:
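An Agilent 4 × 180k array carrying primer-extended double-stranded 36-bp intergenic genomic probes and negative controls received GST-tagged P. falciparum DNA-binding domains expressed in E. coli, about 25 μg on average, for 1 h. The binding buffer contained 1× PBS, 1% milk, 0.2 mg/ml BSA, 0.5% salmon testes DNA and 0.03% Triton X-100. Binding intensity is the top Masliner-normalised natural-log median intensity across replicate spots of either probe orientation, read after Alexa488 anti-GST antibody staining and a 488 nm scan.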
Take “AACATATATATATACACACACATATATATATGAAAT [CACACA_site279]”: the “gcPBM binding intensity (ln)” value came to 9.95 ± 0.26.

Consider “ATTATTAATATTATATGTACGCACTATATCAAGGCT [XGTACX_site6468]”, for which the “gcPBM binding intensity (ln)” value amounted to 11.5 ± 1.1.

On to “TATATTATAAACATATGTACATATGTATAAATACAT [XGTACX_site722]”, for which the “gcPBM binding intensity (ln)” value was 11.1 ± 0.67.

In the case of “AAAAAAAAAAAAAAATTAAAGTAATGGAAAAAAAAA [CACACA_negctrl_site1666]”, the “gcPBM binding intensity (ln)” value came to 9.83 ± 0.042.

As for “ACAACGCGTTAAATGTGTACATATTTATAAGTATAT [XGTACX_site8777]”, the “gcPBM binding intensity (ln)” value came out at 11.5 ± 0.88.

Consider “AATCATTTTATTATCCTAACAAAAAAAAAATATATT [CACACA_negctrl_site115]”, for which the “gcPBM binding intensity (ln)” value amounted to 9.86 ± 0.18.

Regarding “ACGATGCATTAATCTGCACACCACAACAAAACGTTT [CACACA_site899]”, the “gcPBM binding intensity (ln)” value came out at 10.2 ± 0.16.

As for “TTTGCATTTCTTAATTGTACTTAAAAAAAAAATAAT [XGTACX_site758]”, the “gcPBM binding intensity (ln)” value was determined as 11.3 ± 0.91.

Take “AGCTATGTATTCTACACACACATACAGACATATATA [CACACA_site3428]”: the “gcPBM binding intensity (ln)” value came to 10.03 ± 0.021.

As for “ATTAAATGCACATATACACACACCCAATTTTAAGTT [CACACA_site3049]”, the “gcPBM binding intensity (ln)” value amounted to 10.2 ± 0.14.

As for “AATAATTTTTAAATATAAACATTTTTTTTTTTTTTT [GTGCAC_negctrl_site532]”, the “gcPBM binding intensity (ln)” value is 9.72 ± 0.057.

In the case of “TTTTATTTTTTATTTGCACACAATATGTAAAAAAAT [CACACA_site2927]”, the “gcPBM binding intensity (ln)” value was found to be 10.3 ± 0.43.

In the case of “ATAAAATATTAGACATTTATTAATATTACACATATC [XGTACX_negctrl_site364]”, the “gcPBM binding intensity (ln)” value stood at 9.645 ± 0.092.

Take “ATATATATATATTCCACACACACACCCAAAAAAAAA [CACACA_site3649]”: the “gcPBM binding intensity (ln)” value is 10.4 ± 0.43.

For the sequence “ACAAAATAAACCACGTGTACAAATTTATAATGTGTA [XGTACX_site1153]”, the “gcPBM binding intensity (ln)” value was found to be 11.2 ± 0.63.

As to “CTTTTTTATATCTCTACACACATTTATAACCATTTG [CACACA_site4897]”, the “gcPBM binding intensity (ln)” value worked out at 10.2 ± 0.11.

Regarding “TCAAAAGAATAATTGGTGCAAATTATATAATATAAT [GTGCAC_site9804]”, the “gcPBM binding intensity (ln)” value came to 9.9 ± 0.15.

As for “ATATTTATGGAAAAAGAACACACAATCAAACAAAAA [CACACA_site9233]”, the “gcPBM binding intensity (ln)” value came to 10.21 ± 0.035.

As to “TAATATAATAGAAGTGTACACACATATTTATGGGTG [CACACA_site9023]”, the “gcPBM binding intensity (ln)” value was determined as 11.6 ± 0.93.

Regarding TAATATAATGATGCAGTGCATATGTTAAAATGAAAA, the “gcPBM binding intensity (ln)” value was 10.05 ± 0.099.

Take “TATTTTAAAAAAAAAAGTACACATAATATATATAAC [XGTACX_site5416]”: the “gcPBM binding intensity (ln)” value was determined as 11.5 ± 0.99.

For the sequence “ATACATTTATTGTATTGTACATAATATTATATATTC [XGTACX_site7115]”, the “gcPBM binding intensity (ln)” value came out at 10.9 ± 0.49.

Take “ATATATATAATTTTTACACACGCAATAAATATATAT [CACACA_site218]”: the “gcPBM binding intensity (ln)” value was found to be 9.99 ± 0.13.

Regarding “ACAAGGAATATATAAGATAATTTTAAATATAACACG [CACACA_negctrl_site1734]”, the “gcPBM binding intensity (ln)” value is 9.77 ± 0.057.

Take “TAAATATCAAAACACACACACAAAAGTGAATAAATA [CACACA_site3762]”: the “gcPBM binding intensity (ln)” value worked out at 10.1.

Consider “AATCAAAATATATCTACACACATTTAAGTAACACAT [CACACA_site3482]”, for which the “gcPBM binding intensity (ln)” value turned out to be 10.04 ± 0.021.

With TTATAATAAAGAGGAGTGCAAAAAAAAAAAAAAAAA, the “gcPBM binding intensity (ln)” value was 9.98 ± 0.56.

With “TATAAGGTGTCCTATACACACTCCAATAAATATATA [CACACA_site2091]”, the “gcPBM binding intensity (ln)” value came to 10.7 ± 0.64.

Take “TAAAGAGAAAAACATACACACACAACAAAATATGTA [CACACA_site8872]”: the “gcPBM binding intensity (ln)” value was found to be 10.01 ± 0.028.

As to “AGGAACATAAGCAATGTATAAACATAAAACTATAAT [CACACA_negctrl_site1832]”, the “gcPBM binding intensity (ln)” value is 9.73 ± 0.33.

“TATTAATTAAACCATACACACATAACTTTTTTATAA [CACACA_site6526]”: the “gcPBM binding intensity (ln)” value turned out to be 9.955 ± 0.021.

Regarding ATTTTTTTCTTAGGAGTGCACTTATATTTATTTTAT, the “gcPBM binding intensity (ln)” value was 10.6 ± 0.3.

Regarding “AAAAAAAAAAAAAACACACACACACCCACATATACA [CACACA_site2663]”, the “gcPBM binding intensity (ln)” value worked out at 10.4 ± 0.33.

Consider “CTCTGTTGTCTTAGTTGTACAATAGAAAAAAATAAT [XGTACX_site7043]”, for which the “gcPBM binding intensity (ln)” value was determined as 11.5 ± 0.88.

Take “TCTTTTAAACAGTACACACACACATCTATATTTATA [CACACA_site6559]”: the “gcPBM binding intensity (ln)” value turned out to be 11.2 ± 0.79.

As for “ATATATATATATATATGTACATATTGTATTAATTAT [XGTACX_site1919]”, the “gcPBM binding intensity (ln)” value came to 11.1 ± 0.49.

Turning to “AAAGGTTCACATTATATAGTTATGTAATATATATGT [CACACA_negctrl_site542]”, the “gcPBM binding intensity (ln)” value is 9.885 ± 0.092.

“ATATTGTATTTATGTACACACATTTTTGGAATATGA [CACACA_site4861]”: the “gcPBM binding intensity (ln)” value was 11.6 ± 0.92.

With “TTTTTTCTCTGTGGCTGTACTTTGAAGATATTTTAT [XGTACX_site8243]”, the “gcPBM binding intensity (ln)” value is 11.1 ± 0.55.

In the case of “TTTTTTACTTTTGAGACATTTCATATTTTTATTCAC [GTGCAC_negctrl_site730]”, the “gcPBM binding intensity (ln)” value was found to be 10.02 ± 0.049.

On to “TACAGGAATATTTTTACACACTAAAAATTATAAAAT [CACACA_site1649]”, for which the “gcPBM binding intensity (ln)” value was determined as 10 ± 0.15.

With “TGATTGAGTAAAATGGGTACATATACACTATTACAT [XGTACX_site5232]”, the “gcPBM binding intensity (ln)” value was 11.2 ± 0.67.

Consider “AGTATAAAAATATATTTACACACTATATATATCGAA [CACACA_site8494]”, for which the “gcPBM binding intensity (ln)” value worked out at 9.87 ± 0.11.

With “ATATGTTACAGACACACACACACATAAAAAAACAAA [CACACA_site3248]”, the “gcPBM binding intensity (ln)” value turned out to be 10.2 ± 0.26.

The values are drawn from the supplement of paper PMC11417369.
